# PubChem BioAssay AID488969 (Vanderbilt High Throughput Screening Facility, 2010)
# Over roughly 110,000 compounds, “z-score” has its median near -0.1; the highest 2% begin near 2. The list shows a part of the results. Active and inactive are the calls of the source.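 The calls were made as follows: active = z-score in the third read window above 3 or below -3; inactive = the rest.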
# Biological target: Metabotropic glutamate receptor 8 (Rattus norvegicus) (UniProt P70579)
# Experiment: mGluR8 Gi/Go-coupled signaling modulation – cell-based, rat, thallium flux, HTS, primary screen (AID 488969)
# Settings: HEK293 rat mGluR8, GIRK (G protein-gated inwardly rectifying potassium channel) thallium flux, FluoZin2; at 10 µM; stronger effect = higher value; submaximal glutamate (EC20) added with thallium
# UniProt P70579, sequence (P70579 whole entry, looked up): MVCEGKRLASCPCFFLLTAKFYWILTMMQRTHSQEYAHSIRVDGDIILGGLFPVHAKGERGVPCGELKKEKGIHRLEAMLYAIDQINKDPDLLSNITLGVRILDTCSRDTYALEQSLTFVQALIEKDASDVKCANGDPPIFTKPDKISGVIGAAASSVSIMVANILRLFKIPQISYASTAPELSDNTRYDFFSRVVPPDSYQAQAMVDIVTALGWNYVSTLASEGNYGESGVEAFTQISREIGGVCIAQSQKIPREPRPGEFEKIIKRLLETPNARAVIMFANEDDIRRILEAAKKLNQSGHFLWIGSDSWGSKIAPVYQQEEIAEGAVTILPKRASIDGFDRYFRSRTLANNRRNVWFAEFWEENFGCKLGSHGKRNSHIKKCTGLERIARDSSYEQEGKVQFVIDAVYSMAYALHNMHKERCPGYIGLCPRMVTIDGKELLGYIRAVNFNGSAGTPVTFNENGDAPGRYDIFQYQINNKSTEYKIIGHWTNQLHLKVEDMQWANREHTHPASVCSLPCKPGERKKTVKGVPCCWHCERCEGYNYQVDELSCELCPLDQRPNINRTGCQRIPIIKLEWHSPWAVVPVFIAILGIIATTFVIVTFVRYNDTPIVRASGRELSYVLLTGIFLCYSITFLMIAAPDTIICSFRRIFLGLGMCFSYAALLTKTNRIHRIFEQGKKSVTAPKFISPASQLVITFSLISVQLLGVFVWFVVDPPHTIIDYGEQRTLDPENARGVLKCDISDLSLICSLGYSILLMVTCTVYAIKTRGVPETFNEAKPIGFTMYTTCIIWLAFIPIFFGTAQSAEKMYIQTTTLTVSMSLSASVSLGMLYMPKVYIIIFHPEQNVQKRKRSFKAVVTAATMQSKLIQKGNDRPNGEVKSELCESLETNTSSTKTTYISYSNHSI
row,SMILES,z-score
1,O=C(CNC(=O)c1ccccc1)OCc1cccc([N+](=O)[O-])c1,-0.474
2,O=C(COc1ccc(Cl)cc1)OCc1csc(Nc2ccccc2)n1,-0.357
3,COc1cc2c(cc1NC(=O)CSc1ccc(C)cc1)oc1ccccc12,-0.272
4,CCN1CCN(c2ncnc3c2nnn3Cc2ccccc2)CC1,-0.609
5,O=C(Oc1ccccc1)Oc1ccc2c(c1)oc(=O)c1ccccc12,-0.0309
6,CCC(=O)Nc1nc(C)c(C(=O)N2CCCCC2)s1,-0.122
7,O=C(CSc1ncn[nH]1)Nc1ccc(Br)cc1F,-0.355
8,O=C(N/N=C/c1ccncc1)/C(=C/c1ccccc1)NC(=O)c1ccccc1,-0.184
9,CN1CCN(c2ncccc2S(=O)(=O)N2CCCCC2)CC1,0.0306
10,O=C1OCCN1CCN(CN1C(=O)CCC1=O)CN1C(=O)CCC1=O,-2.56
11,CCCCN(CCCC)C(=O)CCS(=O)(=O)c1ccc2c(c1)n(C)c(=O)c(=O)n2C,-0.298
12,Cc1nc(-c2ccc(O)c(O)c2)cs1,-0.0555
13,O=C(O)CCCNc1cc(N2CCC3(CC2)OCCO3)c2noc3c2c1C(=O)c1ccccc1-3,-1.52
14,CC1(C)C(=O)OC(c2cccn2-c2ccc([N+](=O)[O-])cc2)C2(CCCCC2)C1=O (stereo not drawn),-1.27
15,COCc1cc(C)nc(N/N=C/c2ccc(Cl)c(Cl)c2)c1C#N,0.403
16,CCOc1ccccc1NC(=O)N1CCCC(c2nc3c(nnn3Cc3ccc(C)cc3)c(=O)[nH]2)C1 (stereo not drawn),-0.761
17,CC(C)OC(=O)CSc1nc2cccnc2n1-c1ccc(F)cc1,-0.866
18,Cc1cc(NC(=O)Cn2c(=O)n(Cc3ccccc3)c(=O)c3ccccc32)no1,-0.506
19,CCOC(=O)C(=NC(C)C)NNc1cc(Cl)ccc1Cl,0.0498
20,COc1ccc(-c2cc3ccccc3oc2=O)cc1NC(=O)c1ccc([N+](=O)[O-])o1,-0.137
21,COc1ccc(-n2nc3c(c2NC(=O)Cc2cccc(C)c2)CS(=O)C3)cc1 (stereo not drawn),-0.22
22,CCOC(=O)C1(C(=O)O)NC(=O)CC1c1ccccc1 (stereo not drawn),-0.132
23,Cc1c(C(=O)NCc2cccnc2)oc2ccc(S(=O)(=O)N3CCC4(CC3)OCCO4)cc12,active: 5.95

row,SMILES,z-score
1,COc1ccc(/C=C(\C#N)C(=O)OCC(=O)Nc2c(C)cccc2C)cc1,0.0869
2,CCC(=O)Nc1nc2ccccc2n1Cc1ccc(C)cc1,0.127
3,O=C1/C(=C\c2cccnc2)SC(=S)N1C1CCS(=O)(=O)C1 (stereo not drawn),0.0303
4,COc1ccc2cc(CN(CC3CCCO3)S(=O)(=O)c3ccccc3)c(=O)[nH]c2c1 (stereo not drawn),-0.0594
5,O=C(c1ccccc1)c1cc[n+]([O-])cc1,0.107
6,CC1CCN(c2cc(N3CCOCC3)c([N+](=O)[O-])cc2F)CC1,2.53
7,Cc1c(-c2ccccc2)oc2c(C(=O)OCC(=O)Nc3ccc(F)cc3)cccc2c1=O,-0.782
8,CN1/C(=C\C(=O)c2ccccc2Cl)c2ccccc2CC1(C)C,-0.83
9,COC(=O)CNS(=O)(=O)c1ccc(OC)cc1,0.822
10,N#Cc1nc(COc2ccc(Cl)cc2Cl)oc1N1CCOCC1,-0.66
11,COc1ccc(-c2cc(C(F)(F)F)nc(SCC(=O)Nc3ccc4c(c3)OCO4)n2)cc1,0.09
12,CC(=O)CC(C)=NCCN=C(C)CC(C)=O,0.232
13,CCCS(=O)(=O)N1CCN(CC2CC=CCC2)CC1 (stereo not drawn),0.0499
14,Cc1cc(O)c(C2(C(F)(F)F)NCCNC2=O)cc1C (stereo not drawn),0.0442
15,CCc1cccc(NC(=O)c2ccc(Cn3nc(C)cc3C)o2)c1,-0.223
16,CCOC(=O)C(NC(=O)CC(C)C)(Nc1sc(C)c(CC)c1C#N)C(F)(F)F (stereo not drawn),-0.0924
17,O=C(Nc1nnc(-c2ccccc2SCc2ccccc2)s1)Nc1ccccc1F,0.176
18,CCOc1ccc(-c2nnc3n2N=C(c2ccc(OC)cc2)CS3)cc1,-0.208
19,CC1CCCC(C)N1CCCNC(=O)Cn1cc2c(n1)CCCC2 (stereo not drawn),0.0339
20,CCS(=O)(=O)c1ccc2oc(SCC(=O)N3c4ccccc4CC3C)nc2c1 (stereo not drawn),-0.0468
21,Cc1cc(Cl)ccc1OCC(=O)N/N=C1\CCCc2ccccc21,-0.0439
22,C/C(=C\C(=O)Nc1cc(C)on1)c1ccccc1,-0.0528
23,O=C(NCC1OCCc2ccccc21)c1ccc(NC(=O)c2ccc(Cl)cc2)cc1 (stereo not drawn),0.00824

row,SMILES,z-score
1,CCCCCCN1C=C/C(=C\C=C(C#N)C#N)c2ccccc21,-0.103
2,CCC(CC)C(=O)Nc1cccc(C(=O)NCCc2ccc(S(N)(=O)=O)cc2)c1,0.732
3,Fc1ccccc1N1CCN(CCCNc2ccc3nncn3n2)CC1,0.731
4,CC(C)c1ccc(NC(=O)C(c2ccccc2)N2CCOCC2)cc1 (stereo not drawn),-0.131
5,Cc1ccc(-n2ncc3c(=O)n(CC(=O)N4CCCc5ccccc54)cnc32)cc1C,-0.639
6,COc1ccccc1NC(=O)CSc1nc(N)cc(N)n1,-1
7,COc1ccc(OC)c(N)c1,0.27
8,Cc1cc(C)c(S(=O)(=O)c2ccccc2)c(OC(=O)c2c(Cl)cc(Cl)cc2Cl)n1,-0.0752
9,Cc1cc(C(=O)c2ccc(C(C)(C)C)cc2)c(NC(=O)CCl)s1,0.0681
10,Cc1cc(C)c(-c2csc(NC(=O)c3cc([N+](=O)[O-])ccc3N3CCOCC3)n2)c(C)c1,-0.574
11,Cc1nnc(SCC(=O)Nc2ccccc2C(=O)NC2CC2)s1,-0.136
12,Clc1cccc(Nc2ncnc3ccc(Br)cc23)c1,-0.519
13,Cc1ccc(C(=O)CSC2=C(C#N)C(c3ccco3)C3=C(CC(C)(C)CC3=O)N2)cc1 (stereo not drawn),-0.558
14,CC1=CSC2=NC(=O)/C(=C\c3cccn3-c3ccccc3)C(=N)N12,0.673
15,COc1ccccc1N(CC(=O)Nc1ccc(F)c(F)c1)S(C)(=O)=O,0.555
16,COc1ccccc1NC(=O)c1oc2ccc(C)cc2c1C,0.0493
17,CCN(CC1COc2ccccc2O1)C(=S)Nc1ccc(F)cc1 (stereo not drawn),-0.33
18,O=C(CSc1nc(-c2ccccc2)nc2c1Cc1ccccc1O2)Nc1ccccc1,-0.147
19,COc1ncnc2c1NC(=O)CS2,0.198
20,CCOc1ccccc1NC(=O)Cc1ccccc1OC,0.0426
21,O=S(=O)(NCCSc1ccccc1)c1cccs1,0.639
22,CNC(=S)N/N=C1\C(=O)c2cccc3cccc1c23,active: 14.1
23,CCOC(=O)c1ccc(NC(=S)NC2CC(C)(C)NC(C)(C)C2)cc1,0.803

row,SMILES,z-score
1,O=C(Nn1cnnc1)c1csc2ccccc12,-0.0912
2,Cc1ccc(N2CCN(S(=O)(=O)N(C)C)CC2)cc1Cl,0.249
3,Cc1cc(C)n2nc(C(=O)Nc3ccc(N4CCOCC4)cc3)nc2n1,-0.0178
4,CCSc1ccccc1C(=O)NCc1ccc(OC)cc1,-0.303
5,N#CC1=C(N)N(c2ccccc2)C(c2ccco2)C1(C#N)C#N (stereo not drawn),-0.548
6,COc1ccc(C2=Nn3c(nnc3-c3ccco3)SC2)cc1OC,-0.259
7,CCOC(=O)N1CCN(C(=O)C(=O)NNC(=O)COc2ccc(Cl)c(C)c2)CC1,0.261
8,COC(=O)c1c(NC(=O)CN2C(=O)C(=O)N(CC(C)C)C2=O)sc2c1CCCCC2,-0.035
9,Cc1ccsc1/C=N/NC(=O)c1cccc(S(=O)(=O)Nc2ccccc2Cl)c1,-0.0762
10,Cc1cccc(OCC(=O)N2CCC(N3CCOCC3)CC2)c1,-0.0492
11,Cc1ccc(-c2csc(/C(C#N)=C/Nc3ccccc3SC(F)(F)F)n2)c(C)c1,0.02
12,Cc1ccc2oc(-c3ccco3)nc2c1,-0.256
13,Cc1cccc(S(=O)(=O)Nc2cccc(-c3cn4ccsc4n3)c2)c1,-0.385
14,CCc1ccc(N2CC(C(=O)Nc3ccccc3F)CC2=O)cc1 (stereo not drawn),0.00826
15,CCOC(=O)c1cc(CC)sc1/N=C/c1c(O)ccc2ccccc12,0.0622
16,O=C(CNC(=O)c1ccco1)NCC(=O)OCc1cccc(Cl)c1,0.463
17,CCOc1cc(CNCc2cccs2)cc(Br)c1OCC,-0.539
18,C/C(=N/NC(=O)c1ccc(Br)o1)c1ccncc1,-0.0302
19,CCOCC(=O)Nc1nc2c(s1)C(=O)CC(C)(C)C2,-0.264
20,COCCNS(=O)(=O)c1ccccc1,0.0399
21,Clc1ccc2c(c1)C(N1CCNCC1)Cc1ccccc1S2 (stereo not drawn),active: 3.92
22,Cc1cccc(NC(=O)C2CCCN2C(=O)OCC(C)C)c1 (stereo not drawn),0.00631
23,Cc1cc(OCCOCCN(C)CCO)cc(C)c1Cl,0.392

row,SMILES,z-score
1,O=S(=O)(c1ccc(F)c2ccccc12)N1CCCCC1,-1.43
2,C=CCn1c(SCc2nc3cc(C(F)(F)F)ccc3c(=O)[nH]2)nc2sc(CC)cc2c1=O,0.0244
3,Cc1ccc(-c2nnc(SCC(=O)O)n2N)cc1,0.74
4,CC(C)Sc1nc2c(c(=O)n(C)c(=O)n2C)n1Cc1ccc(Cl)cc1,-0.506
5,O=C(NC1CCCCC1)NC1CCN(S(=O)(=O)c2ccc3c(c2)OCCO3)CC1,0.742
6,O=C(Nc1c(F)cc(F)cc1Br)c1cc(-c2ccc(O)cc2)on1,-0.0167
7,COC(=O)c1ccc(NC(=O)COc2ccc(S(=O)(=O)NC(C)C)cc2)cc1,0.613
8,CC1CCc2sc(C(=O)OCC(=O)NCc3ccccc3)cc2C1 (stereo not drawn),-0.173
9,CCOCCCNC(=O)CN(Cc1ccc(Cl)cc1)S(C)(=O)=O,0.482
10,c1ccc(CSc2ncnc3c2cnn3Cc2ccccc2)cc1,-0.473
11,O=C(Nc1ccccc1)N1CCc2ccccc2C1,-0.169
12,O=c1c2ccccc2nnn1CSc1nnc2ccccn12,0.0196
13,O=C(c1cc([N+](=O)[O-])ccc1Cl)N1CCN(c2ccccc2)CC1,-0.238
14,CCC(=O)N(Cc1cc2c(C)ccc(C)c2[nH]c1=O)C1CCCCC1,-0.433
15,COc1cccc(OCC(O)CN2CCC(Cc3ccccc3)CC2)c1 (stereo not drawn),-0.0721
16,CN(Cc1cnn(C)c1)C(=O)c1cc2ccccc2oc1=O,-0.11
17,COc1ccc(-c2nc3nc(C)cc(C)n3n2)cc1,0.281
18,CN1CC(c2ccc(Cl)c(Cl)c2)[C@@]2(COc3ccccc3C2=O)[C@@]12C(=O)Nc1ccccc12 (stereo partly drawn),0.103
19,OCCN1CCN(c2nc(-c3ccccc3)c3cc(Cl)ccc3n2)CC1,-0.163
20,CSc1nnc(C2CCCN2)n1C (stereo not drawn),0.383
21,COc1cccc(C2NC(c3cccc(OC)c3O)C(C)C(=O)C2C)c1O (stereo not drawn),-0.951
